# Laboratory results: paper PMC9911399, “Two distinct binding modes provide the RNA-binding protein RbFox with extraordinary sequence specificity”
# Where a chain is given by its changes, count along the chain named. Some of the results follow.
# T1: RBFOX1 RRM RbFoxmut (Fox-RRM*) (Homo sapiens, UniProt Q9NWB1 109-208, R118D;E147R;N151S;E152T)
# T1 sequence: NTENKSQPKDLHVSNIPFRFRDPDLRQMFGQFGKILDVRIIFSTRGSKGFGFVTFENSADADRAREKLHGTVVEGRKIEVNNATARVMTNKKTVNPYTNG
# B1: AGCCAGC (DNA:RNA)
# RNA: GGGAGACCGGAAUUCAGAUUGUCCAGCCAGCUUAAAUCCCGUCGUAGCCACCA
# DNA 1: CAATCTGAATTCCGGTCTCCC
# DNA 2: TGGTGGCTACGACGGGATT
# B2: CCUGACG (DNA:RNA)
# RNA: B1 RNA with A25C, G26C, C27U, C28G, G30C, C31G
# DNA 1: CAATCTGAATTCCGGTCTCCC
# DNA 2: TGGTGGCTACGACGGGATT
# B3: GCGACGC (DNA:RNA)
# RNA: B1 RNA with A25G, G26C, C27G, C28A, A29C
# DNA 1: CAATCTGAATTCCGGTCTCCC
# DNA 2: TGGTGGCTACGACGGGATT
# B4: GCGUGAG (DNA:RNA)
# RNA: GGGAGACCGGAAUUCAGAUUGUCCGCGUGAGUUAAAUCCCGUCGUAGCCACCA
# DNA 1: CAATCTGAATTCCGGTCTCCC
# DNA 2: TGGTGGCTACGACGGGATT
# B5: ACAACAC (DNA:RNA)
# RNA: B1 RNA with G26C, C27A, C28A, A29C, G30A
# DNA 1: CAATCTGAATTCCGGTCTCCC
# DNA 2: TGGTGGCTACGACGGGATT
# B6: GAAUUCG (DNA:RNA)
# RNA: B4 RNA with C26A, G27A, G29U, A30C
# DNA 1: CAATCTGAATTCCGGTCTCCC
# DNA 2: TGGTGGCTACGACGGGATT
# B7: UCGCAGU (DNA:RNA)
# RNA: B1 RNA with A25U, G26C, C27G, C31U
# DNA 1: CAATCTGAATTCCGGTCTCCC
# DNA 2: TGGTGGCTACGACGGGATT
# B8: CACCUUU (DNA:RNA)
# RNA: B1 RNA with A25C, G26A, A29U, G30U, C31U
# DNA 1: CAATCTGAATTCCGGTCTCCC
# DNA 2: TGGTGGCTACGACGGGATT
# B9: CCGUCAU (DNA:RNA)
# RNA: B4 RNA with G25C, G29C, G31U
# DNA 1: CAATCTGAATTCCGGTCTCCC
# DNA 2: TGGTGGCTACGACGGGATT
# Biological target: T1, RBFOX1 RRM RbFoxmut (Fox-RRM*)
# Test: EMSA; HiTS-Eq, 1 nM pool, 10 min; buffer printed only for the single-RNA assays: 10 mM Tris pH 7.5, 150 mM NaCl, 3.4 mM EDTA, 0.001% NP-40, 30 C
# Conditions: tags: His6 N-terminal (pET28a); label: 5' 32P
# Method in brief: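 Purified RbFox RRM, wild type or mutant, was incubated for 10 min in 50 µL with 1 nM of a 5′-radiolabelled RNA pool carrying 7 randomized nucleotides, whose flanks were annealed to DNA oligonucleotides, over a series of increasing protein concentrations. Unbound RNA was resolved on 8% native PAGE, cut out, reverse-transcribed, barcoded by PCR and sequenced on an Illumina HiSeq 2500. Relative association constants were derived from changes in read counts for each RNA species versus the control reaction and normalised to the cognate motif.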
row,Binder,binding signal
1,B1,0.0776 KA relative to UGCAUGU
2,B2,0.0748 KA relative to UGCAUGU
3,B3,0.0782 KA relative to UGCAUGU
4,B4,0.139 KA relative to UGCAUGU
5,B5,0.114 KA relative to UGCAUGU
6,B6,0.0817 KA relative to UGCAUGU
7,B7,0.086 KA relative to UGCAUGU
8,B8,0.0811 KA relative to UGCAUGU
9,B9,0.0814 KA relative to UGCAUGU
